Data: the supplement of paper PMC10369915
The other results are listed elsewhere or left out. No stated cut-off is given here; in the data, active = 3.2 or more and inactive = the rest. Only a few entries rise above the background.

These binders were tested against SHP2 C-SH2 domain E139D (assay: enrichment score (SH2-bound / input frequency) (ratio); bacterial display of known human phosphotyrosine sites (pTyr-Var adds point mutants) read by sequencing; higher = stronger binding; tyrosines were phosphorylated by kinases first). Details: peptide library: pTyr-Var.
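Further: displayed peptides selected on beads carrying the immobilized SH2 domain, with library peptides lacking any tyrosine serving as negative controls.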

| Binder | enrichment score |
| --- | --- |
| MAYDRYVAICS [OR8D4_Y123_C120Y] | inactive: 0.76 |
| MALDRYVAICK [OR2B11_Y127] | inactive: 0.723 |
| SLIDMYSKVLD [OPA1_Y268_E270K] | inactive: 0.75 |
| VASMFYTLVIP [OR8K3_Y277_I275M] | inactive: 2.79 |
| KHGGNYVPAPE [OSCP1_Y237_K242E] | inactive: 0.741 |
| KQELVYTNKKL [OPTN_Y356] | inactive: 0.669 |
| EREYKYGAHKY [OAT_Y50_N54K] | inactive: 0.843 |
| MKALGYFAVVK [OPA1_Y498_T503K] | inactive: 1.21 |
| FGAHNHHPLPV [OAT_Y55_Y55H_YF] | active: 3.52 |

These binders were tested against SHP2 C-SH2 domain wild-type in the same assay as above. Details: peptide library: pTyr-Var.

| Binder | enrichment score |
| --- | --- |
| MAYDRYVAICS [OR8D4_Y123_C120Y] | inactive: 0.979 |
| MALDRYVAICK [OR2B11_Y127] | inactive: 0.713 |
| SLIDMYSKVLD [OPA1_Y268_E270K] | inactive: 0.805 |
| VASMFYTLVIP [OR8K3_Y277_I275M] | inactive: 2.59 |
| KHGGNYVPAPE [OSCP1_Y237_K242E] | inactive: 0.679 |
| KQELVYTNKKL [OPTN_Y356] | inactive: 0.712 |
| EREYKYGAHKY [OAT_Y50_N54K] | inactive: 0.834 |
| MKALGYFAVVK [OPA1_Y498_T503K] | inactive: 1.2 |
| FGAHNHHPLPV [OAT_Y55_Y55H_YF] | inactive: 2.61 |

These binders were tested against SHP2 N-SH2 domain L43F in the same assay as above. Details: peptide library: pTyr-Var.

| Binder | enrichment score |
| --- | --- |
| MAYDRYVAICS [OR8D4_Y123_C120Y] | inactive: 0.797 |
| MALDRYVAICK [OR2B11_Y127] | inactive: 0.681 |
| SLIDMYSKVLD [OPA1_Y268_E270K] | inactive: 0.835 |
| VASMFYTLVIP [OR8K3_Y277_I275M] | inactive: 2.27 |
| KHGGNYVPAPE [OSCP1_Y237_K242E] | inactive: 0.467 |
| KQELVYTNKKL [OPTN_Y356] | inactive: 0.595 |
| EREYKYGAHKY [OAT_Y50_N54K] | inactive: 0.917 |
| MKALGYFAVVK [OPA1_Y498_T503K] | inactive: 0.969 |
| FGAHNHHPLPV [OAT_Y55_Y55H_YF] | active: 3.21 |

What follows are binders tested against SHP2 N-SH2 domain T42A in the same assay as above. Details: peptide library: pTyr-Var.

| Binder | enrichment score |
| --- | --- |
| MAYDRYVAICS [OR8D4_Y123_C120Y] | inactive: 0.753 |
| MALDRYVAICK [OR2B11_Y127] | inactive: 0.797 |
| SLIDMYSKVLD [OPA1_Y268_E270K] | inactive: 0.782 |
| VASMFYTLVIP [OR8K3_Y277_I275M] | inactive: 2.4 |
| KHGGNYVPAPE [OSCP1_Y237_K242E] | inactive: 0.524 |
| KQELVYTNKKL [OPTN_Y356] | inactive: 0.519 |
| EREYKYGAHKY [OAT_Y50_N54K] | inactive: 0.865 |
| MKALGYFAVVK [OPA1_Y498_T503K] | inactive: 1.43 |
| FGAHNHHPLPV [OAT_Y55_Y55H_YF] | inactive: 2.13 |

The binders below were run against SHP2 N-SH2 domain T52S in the same assay as above. Details: peptide library: pTyr-Var.

| Binder | enrichment score |
| --- | --- |
| MAYDRYVAICS [OR8D4_Y123_C120Y] | inactive: 0.734 |
| MALDRYVAICK [OR2B11_Y127] | inactive: 0.688 |
| SLIDMYSKVLD [OPA1_Y268_E270K] | inactive: 0.925 |
| VASMFYTLVIP [OR8K3_Y277_I275M] | inactive: 2.39 |
| KHGGNYVPAPE [OSCP1_Y237_K242E] | inactive: 0.559 |
| KQELVYTNKKL [OPTN_Y356] | inactive: 0.472 |
| EREYKYGAHKY [OAT_Y50_N54K] | inactive: 0.82 |
| MKALGYFAVVK [OPA1_Y498_T503K] | inactive: 1.52 |
| FGAHNHHPLPV [OAT_Y55_Y55H_YF] | inactive: 3.06 |

The binders below were run against SHP2 N-SH2 domain wild-type in the same assay as above. Details: peptide library: pTyr-Var.

| Binder | enrichment score |
| --- | --- |
| MAYDRYVAICS [OR8D4_Y123_C120Y] | inactive: 0.894 |
| MALDRYVAICK [OR2B11_Y127] | inactive: 0.764 |
| SLIDMYSKVLD [OPA1_Y268_E270K] | inactive: 0.749 |
| VASMFYTLVIP [OR8K3_Y277_I275M] | inactive: 2.33 |
| KHGGNYVPAPE [OSCP1_Y237_K242E] | inactive: 0.821 |
| KQELVYTNKKL [OPTN_Y356] | inactive: 0.664 |
| EREYKYGAHKY [OAT_Y50_N54K] | inactive: 1.01 |
| MKALGYFAVVK [OPA1_Y498_T503K] | inactive: 1.49 |
| FGAHNHHPLPV [OAT_Y55_Y55H_YF] | inactive: 2.76 |
